Positions count from the first letter of the chain named. This is one part of the list.
T1: RBFOX1 RRM (Homo sapiens, UniProt Q9NWB1 109-208)
T1 sequence: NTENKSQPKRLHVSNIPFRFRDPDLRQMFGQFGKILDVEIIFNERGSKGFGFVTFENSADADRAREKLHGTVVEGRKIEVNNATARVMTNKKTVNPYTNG

B1: GAGCAGA (DNA:RNA)
RNA: GGGAGACCGGAAUUCAGAUUGUCCGAGCAGAUUAAAUCCCGUCGUAGCCACCA
DNA 1: CAATCTGAATTCCGGTCTCCC
DNA 2: TGGTGGCTACGACGGGATT
B2: GCGCAAA (DNA:RNA)
RNA: B1 RNA with A26C, G30A
DNA 1: CAATCTGAATTCCGGTCTCCC
DNA 2: TGGTGGCTACGACGGGATT
B3: AAGGGCC (DNA:RNA)
RNA: B1 RNA with G25A, C28G, A29G, G30C, A31C
DNA 1: CAATCTGAATTCCGGTCTCCC
DNA 2: TGGTGGCTACGACGGGATT
B4: ACUGGUC (DNA:RNA)
RNA: GGGAGACCGGAAUUCAGAUUGUCCACUGGUCUUAAAUCCCGUCGUAGCCACCA
DNA 1: CAATCTGAATTCCGGTCTCCC
DNA 2: TGGTGGCTACGACGGGATT
B5: AGAAUAC (DNA:RNA)
RNA: B4 RNA with C26G, U27A, G28A, G29U, U30A
DNA 1: CAATCTGAATTCCGGTCTCCC
DNA 2: TGGTGGCTACGACGGGATT
B6: UGGGCAC (DNA:RNA)
RNA: B4 RNA with A25U, C26G, U27G, G29C, U30A
DNA 1: CAATCTGAATTCCGGTCTCCC
DNA 2: TGGTGGCTACGACGGGATT
B7: UGAGCAC (DNA:RNA)
RNA: B4 RNA with A25U, C26G, U27A, G29C, U30A
DNA 1: CAATCTGAATTCCGGTCTCCC
DNA 2: TGGTGGCTACGACGGGATT
B8: CUGAGAA (DNA:RNA)
RNA: B1 RNA with G25C, A26U, C28A, A29G, G30A
DNA 1: CAATCTGAATTCCGGTCTCCC
DNA 2: TGGTGGCTACGACGGGATT
B9: CGCCGCU (DNA:RNA)
RNA: B4 RNA with A25C, C26G, U27C, G28C, U30C, C31U
DNA 1: CAATCTGAATTCCGGTCTCCC
DNA 2: TGGTGGCTACGACGGGATT
B10: AUCAAGA (DNA:RNA)
RNA: B1 RNA with G25A, A26U, G27C, C28A
DNA 1: CAATCTGAATTCCGGTCTCCC
DNA 2: TGGTGGCTACGACGGGATT
B11: AAAAGUG (DNA:RNA)
RNA: B4 RNA with C26A, U27A, G28A, C31G
DNA 1: CAATCTGAATTCCGGTCTCCC
DNA 2: TGGTGGCTACGACGGGATT
B12: UGUCGGG (DNA:RNA)
RNA: B4 RNA with A25U, C26G, G28C, U30G, C31G
DNA 1: CAATCTGAATTCCGGTCTCCC
DNA 2: TGGTGGCTACGACGGGATT
B13: AGUAAGC (DNA:RNA)
RNA: B4 RNA with C26G, G28A, G29A, U30G
DNA 1: CAATCTGAATTCCGGTCTCCC
DNA 2: TGGTGGCTACGACGGGATT
B14: ACGGGCG (DNA:RNA)
RNA: B4 RNA with U27G, U30C, C31G
DNA 1: CAATCTGAATTCCGGTCTCCC
DNA 2: TGGTGGCTACGACGGGATT
B15: AACGUCC (DNA:RNA)
RNA: B4 RNA with C26A, U27C, G29U, U30C
DNA 1: CAATCTGAATTCCGGTCTCCC
DNA 2: TGGTGGCTACGACGGGATT
B16: CUGACUU (DNA:RNA)
RNA: B4 RNA with A25C, C26U, U27G, G28A, G29C, C31U
DNA 1: CAATCTGAATTCCGGTCTCCC
DNA 2: TGGTGGCTACGACGGGATT
B17: UGUUGGU (DNA:RNA)
RNA: B4 RNA with A25U, C26G, G28U, U30G, C31U
DNA 1: CAATCTGAATTCCGGTCTCCC
DNA 2: TGGTGGCTACGACGGGATT
B18: ACCGCAG (DNA:RNA)
RNA: B4 RNA with U27C, G29C, U30A, C31G
DNA 1: CAATCTGAATTCCGGTCTCCC
DNA 2: TGGTGGCTACGACGGGATT
B19: GUCUGGU (DNA:RNA)
RNA: B1 RNA with A26U, G27C, C28U, A29G, A31U
DNA 1: CAATCTGAATTCCGGTCTCCC
DNA 2: TGGTGGCTACGACGGGATT
B20: GCAUCUC (DNA:RNA)
RNA: B4 RNA with A25G, U27A, G28U, G29C
DNA 1: CAATCTGAATTCCGGTCTCCC
DNA 2: TGGTGGCTACGACGGGATT
B21: UUGCAGG (DNA:RNA)
RNA: B1 RNA with G25U, A26U, A31G
DNA 1: CAATCTGAATTCCGGTCTCCC
DNA 2: TGGTGGCTACGACGGGATT
B22: GGGCCUA (DNA:RNA)
RNA: B1 RNA with A26G, A29C, G30U
DNA 1: CAATCTGAATTCCGGTCTCCC
DNA 2: TGGTGGCTACGACGGGATT
B23: CACCACC (DNA:RNA)
RNA: B1 RNA with G25C, G27C, G30C, A31C
DNA 1: CAATCTGAATTCCGGTCTCCC
DNA 2: TGGTGGCTACGACGGGATT
B24: CCAGUCA (DNA:RNA)
RNA: B4 RNA with A25C, U27A, G29U, U30C, C31A
DNA 1: CAATCTGAATTCCGGTCTCCC
DNA 2: TGGTGGCTACGACGGGATT
B25: CCGGAUU (DNA:RNA)
RNA: B4 RNA with A25C, U27G, G29A, C31U
DNA 1: CAATCTGAATTCCGGTCTCCC
DNA 2: TGGTGGCTACGACGGGATT
B26: CCUCUCC (DNA:RNA)
RNA: B4 RNA with A25C, G28C, G29U, U30C
DNA 1: CAATCTGAATTCCGGTCTCCC
DNA 2: TGGTGGCTACGACGGGATT
B27: UAGCACU (DNA:RNA)
RNA: B1 RNA with G25U, G30C, A31U
DNA 1: CAATCTGAATTCCGGTCTCCC
DNA 2: TGGTGGCTACGACGGGATT
B28: CACACAU (DNA:RNA)
RNA: B1 RNA with G25C, G27C, C28A, A29C, G30A, A31U
DNA 1: CAATCTGAATTCCGGTCTCCC
DNA 2: TGGTGGCTACGACGGGATT
B29: CGGCACC (DNA:RNA)
RNA: B1 RNA with G25C, A26G, G30C, A31C
DNA 1: CAATCTGAATTCCGGTCTCCC
DNA 2: TGGTGGCTACGACGGGATT
B30: UAUCGGG (DNA:RNA)
RNA: B1 RNA with G25U, G27U, A29G, A31G
DNA 1: CAATCTGAATTCCGGTCTCCC
DNA 2: TGGTGGCTACGACGGGATT
B31: CAAGAAU (DNA:RNA)
RNA: B1 RNA with G25C, G27A, C28G, G30A, A31U
DNA 1: CAATCTGAATTCCGGTCTCCC
DNA 2: TGGTGGCTACGACGGGATT

Target: T1, RBFOX1 RRM
Test: EMSA; HiTS-Eq, 1 nM pool, 10 min; buffer printed only for the single-RNA assays: 10 mM Tris pH 7.5, 150 mM NaCl, 3.4 mM EDTA, 0.001% NP-40, 30 C
Conditions: tags: His6 N-terminal (pET28a); label: 5' 32P
In short: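 A pool of RNA with 7 randomized nucleotides, 5′-radiolabelled and with DNA-annealed flanks, was equilibrated at 1 nM for 10 min in 50 µL with purified RbFox RRM, wild type or mutant, across increasing protein concentrations. Free RNA was separated by 8% native PAGE, excised, reverse-transcribed, barcoded by PCR and sequenced. Relative association constants were obtained from read-count changes of each RNA species versus the control reaction and normalised to the cognate motif.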

Binder	binding signal
B1	0.0147 KA relative to UGCAUGU
B2	0.007 KA relative to UGCAUGU
B3	0.012 KA relative to UGCAUGU
B4	0.016 KA relative to UGCAUGU
B5	0.000709 KA relative to UGCAUGU
B6	0.0337 KA relative to UGCAUGU
B7	0.0128 KA relative to UGCAUGU
B8	0.016 KA relative to UGCAUGU
B9	0.00885 KA relative to UGCAUGU
B10	0.00585 KA relative to UGCAUGU
B11	0.00728 KA relative to UGCAUGU
B12	0.0123 KA relative to UGCAUGU
B13	0.00802 KA relative to UGCAUGU
B14	0.0129 KA relative to UGCAUGU
B15	0.00654 KA relative to UGCAUGU
B16	0.0131 KA relative to UGCAUGU

Binder	binding signal
B17	0.0304 KA relative to UGCAUGU
B18	0.00369 KA relative to UGCAUGU
B19	0.0182 KA relative to UGCAUGU
B20	0.0161 KA relative to UGCAUGU
B21	0.0144 KA relative to UGCAUGU
B22	0.0089 KA relative to UGCAUGU
B23	0.00141 KA relative to UGCAUGU
B24	0.00658 KA relative to UGCAUGU
B25	0.00966 KA relative to UGCAUGU
B26	0.00489 KA relative to UGCAUGU
B27	0.00975 KA relative to UGCAUGU
B28	0.000433 KA relative to UGCAUGU
B29	0.0105 KA relative to UGCAUGU
B30	0.00336 KA relative to UGCAUGU
B31	0.00351 KA relative to UGCAUGU

Reference: paper PMC9911399, “Two distinct binding modes provide the RNA-binding protein RbFox with extraordinary sequence specificity”
